Our source for the binding signal values is article PMC12136788.

T1: UNK ZnF1-3 (human, UniProt Q9C0B0 31-174)
T1 sequence: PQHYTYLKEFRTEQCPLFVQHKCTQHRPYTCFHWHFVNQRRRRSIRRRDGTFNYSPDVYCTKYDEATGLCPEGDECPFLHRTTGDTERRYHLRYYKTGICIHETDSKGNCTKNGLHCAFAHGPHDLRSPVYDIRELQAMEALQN

B1: chr22:19452774:19452775:-_ENSG00000070010_ENST00000399523|hu_hu|hu_hu_hu_mus_False|8_98 (ssRNA)
RNA: GGGAGUUCUACAGUCCGACGAUCCUUCUCAUUGUAGUUGAUGGCAAUCACAUCUCCAGUCGUCAGACAGGCGAAGUUUCUCAAUGCAUUUUCUAAUACCGCUUUAGGGUUGGUAAUAUCCAGGAAGUCAGGGCUCUGAGGCUGCAACAGAGGAUUGAGCAUCA
B2: chr9:14812383:14812384:-_ENSMUSG00000031934_ENSMUST00000164273|mus_mus|mus_mus_mus_hu_True|1_88 (ssRNA)
RNA: GGGAGUUCUACAGUCCGACGAUCAUAGCCCAGGUAGAUACACGCUAACAGUAUAACGAUGAGUGUCAGCAGGCGGCAGCUAAUGUACUUGAUGAUUAAAUUAUUAGAAUUUUUCUUUGUCUUCAAGUACUGCUCCACGAUUGGCAACAGAGGAUUGAGCAUCA
B3: 42628803_42628923_1299_3pUTR_ENSMUSG00000036667_ENSMUST00000045054|mouse|control|control (ssRNA)
RNA: GGGAGUUCUACAGUCCGACGAUCAUAGGUCCUUGUUCCUAUUUUAGGGGUACGGAAAGGUCCUGGAUUGAGACUCUGGCUUGUGAUGCUGAUACCAAAGGCAUUGAGGAGCAGGUUUCCUGGGAAUCGAGCCAGAGGGGACACCAACAGAGGAUUGAGCAUCA
B4: chr7:7679991:7679992:-_ENSG00000106399_ENST00000396682|hu_hu|hu_hu_hu_mus_False|58_88 (ssRNA)
RNA: GGGAGUUCUACAGUCCGACGAUCUGGGAUGAAUCUUUUCCAGCUUCCCUACGAAGCACACGGGCCGGUCGAUAUACUGAGCUAGCAUGCUGGCGUUGACGCGCGCUUUGGGGAGCUGCAUUAUGUCCUCCAUGAUUCUGCCGCCAACAGAGGAUUGAGCAUCA
B5: 4756694_4756814_1462_3pUTR_ENSMUSG00000044674_ENSMUST00000054294|mouse|control|control (ssRNA)
RNA: GGGAGUUCUACAGUCCGACGAUCCGCAGGGUGCGCCGCAGUCCUUCUCCCCCAGAAAGUGGUAGUUGAGGUAGGAGGGCACCCUGAGGGCGCGCGGGCAGGAGAACUUUCCCCGCUCCACCGUCCCGGCACCCCCCGGGUAGCCAACAGAGGAUUGAGCAUCA
B6: 15289965_15290085_3604_CDS_ENSG00000074181_ENST00000263388|human|control|control (ssRNA)
RNA: GGGAGUUCUACAGUCCGACGAUCUCCUGGGGGACAGGUGCAGCGGAAACCACCCACCAGGUCCACGCAGGUGCCAUUGUGUAGGCACCGGGGCCCUGAGUCCAGCGGUGGGCCUGGGCCGCAGUCAUCCUCAUUAAUCUCGCACAACAGAGGAUUGAGCAUCA
B7: chr13:100200574:100200575:-_ENSMUSG00000052727_ENSMUST00000064762|mus_hu|FALSE|FALSE (ssRNA)
RNA: GGGAGUUCUACAGUCCGACGAUCAUAAUCUUCUUCAUCUGGGGACCUGGUUGUUUCCUCAGGCUUUUGAUAGGCAUAGCUAAAGUCACCAGGUGUCUUCCCUCCACUGUCCUUCUCCAGGCCAGGUGUGGACAAAUCUCUAUUCAACAGAGGAUUGAGCAUCA
B8: 37431128_37434536_1627_3pUTR_ENSMUSG00000026113_ENSMUST00000027287|mouse|control|control (ssRNA)
RNA: GGGAGUUCUACAGUCCGACGAUCCGUUCCGCGUAGUAGCUGACCUGGGUUUUUAGGGUGUUGAUCUGGGCAAUGAUCUCCUUGGCUCGGGUGAUGUCCUGUGGUAUGUAGAUGAUGGACUGGCCACUAGAAGAUGUACAACACCAACAGAGGAUUGAGCAUCA
B9: 138256096_138289186_685_CDS_ENSG00000114107_ENST00000484888|human|control|control (ssRNA)
RNA: GGGAGUUCUACAGUCCGACGAUCUUCCUCCUUUUUUAAUCUACAGACUUCCAUUUGCAAAGAAGCAAUAGUUUCUUCUUGCUCCGUUCGUUUUUUCUUAUAAUGCUGGCACUUCACCUGUAAAGUUUUCUGCUCCUUUUGAAGCAACAGAGGAUUGAGCAUCA
B10: 77617946_77618066_2131_CDS_ENSG00000091656_ENST00000521891|human|control|control (ssRNA)
RNA: GGGAGUUCUACAGUCCGACGAUCGUCUCCCCGGGCUAUUUCACUUGGAUGAGCAGCUGUGGCACUGUCUUUACUGGCACUUGCGUCUGCAAAGUCCUUGCCACUGAUGCCAUAGUUACUAGCAACACUGCCACUGGCCCUAACCAACAGAGGAUUGAGCAUCA
B11: chr4:115894766:115894767:+_ENSMUSG00000028698_ENSMUST00000030464|mus_hu|mus_mus_mus_hu_True|48_48 (ssRNA)
RNA: GGGAGUUCUACAGUCCGACGAUCUUCCACACGGAAAUGUACUUCGGGUUUUCCAACGGCCAGUACCAGUCCGGCCAAACUACCCGAUGAGGACAAGCCCCCUCUCUCCUACAGAACACAACAAAAUGCCCCCGAACUUUCAAGCAACAGAGGAUUGAGCAUCA
B12: chr1:58468927:58468928:-_ENSMUSG00000026034_ENSMUST00000148330|mus_mus|mus_mus_mus_hu_False|88_108 (ssRNA)
RNA: GGGAGUUCUACAGUCCGACGAUCAAUCUAUAAUUACGAUGUUCAUUUAUUUGGUUUUGUACUUAAUGAACCAAAUUACCCAAACAAAAUAAACAUGGCAAUAUAAAAAUGUUAAGAAUUUACAAAGCUGUACAAAAUAACUUACAACAGAGGAUUGAGCAUCA
B13: chrX:70926549:70926550:+_ENSMUSG00000019558_ENSMUST00000114465|mus_hu|FALSE|FALSE (ssRNA)
RNA: GGGAGUUCUACAGUCCGACGAUCGGCAGACCCCAAAAGUGUCAGGGAAAGGCAGGCCCCCUGGAGGGGUGCGGUGGGGCUGAAGCAGGGGCUGCUAUGGCUACCAGAGGUGAGCUGGUGAUGUGAGCUGAGUUGUCACAUGACCAACAGAGGAUUGAGCAUCA
B14: chr12:105536279:105536280:+_ENSG00000136051_ENST00000332180|hu_mus|hu_hu_hu_mus_True|48_48 (ssRNA)
RNA: GGGAGUUCUACAGUCCGACGAUCAGCACUGAACAUGUAAUGUAAUCUGGCUGCAUCGACAGCAUUUUCAUAUACAUCAUCUAAAUAAAUUGGGAAGACAGCGCGAUGCCAGUAUAAAAAACAGCAGUCACACUGUGCUUGGACCAACAGAGGAUUGAGCAUCA
B15: chr15:79189586:79189587:+_ENSG00000185787_ENST00000426013|hu_mus|FALSE|FALSE (ssRNA)
RNA: GGGAGUUCUACAGUCCGACGAUCGUCCGUCACUGAUACACUGGUAGAAACUUUGAAAUGAAAAAAGGAAGAAAAAAGGAGCAGUUACUCCUUUUAUUUUCUCUGUUUAAAAUCAAAGAGGAAACAAACAACUCUGUUAUACACCAACAGAGGAUUGAGCAUCA
B16: chr3:179052105:179052106:+_ENSG00000121864_ENST00000484866|hu_hu|FALSE|FALSE (ssRNA)
RNA: GGGAGUUCUACAGUCCGACGAUCUCCAAACCUCAUCAAGCAGUCACUACAUUUAUGAGGCAAGUCAGCUGAAUGCUUGAAAUCUAGAUGAAUUUUAAGAUCUUCAAUUUGUCCUGUUGAAUAUUCACAAUAUUGACAUAAAUACAACAGAGGAUUGAGCAUCA
B17: 62013551_62021495_69_CDS_ENSMUSG00000066151_ENSMUST00000084527|mouse|control|control (ssRNA)
RNA: GGGAGUUCUACAGUCCGACGAUCCAGUCCAAAAAGAGAAGCCAGCUUAGCUCCGCCGCUUGGCGAGAGGAAGUCGGUGUCAUCCUCGUCUCCGGCACCGAACAUCACGUCGGCUUUCGCCCAGCUGAAGGGAGGAGGAAGUUGCAACAGAGGAUUGAGCAUCA
B18: chr12:493273:493274:-_ENSG00000073614_ENST00000399788|hu_mus|hu_hu_hu_mus_False|38_48 (ssRNA)
RNA: GGGAGUUCUACAGUCCGACGAUCUUUUCUCUCCACCACAGGGAUCUUCAAUGUAGAUCCUUGAAGUUCCCAAAAUUUUGCCAGUUGAUCCAAGAAAUCCAAUCUCACUCUAGUCAUUGCCUCAAGUUCAUUCAGGCGCUGGACCAACAGAGGAUUGAGCAUCA
B19: 45143715_45143835_1109_CDS_ENSG00000136270_ENST00000258770|human|control|control (ssRNA)
RNA: GGGAGUUCUACAGUCCGACGAUCCAGGGGCAGGCUGAGCCACUUGAGUAAGGCGAAGGACUUGGCACAGUGGGCCACCUCACCAGAAGUCAGGCUGGGCAUGAGGGAUAGCAGGUCGGUGGCCAGGCGCUGGGACACCUGGGUCAACAGAGGAUUGAGCAUCA
B20: chr1:220276048:220276049:+_ENSG00000067704_ENST00000302637|hu_hu|hu_hu_hu_mus_True|1_1 (ssRNA)
RNA: GGGAGUUCUACAGUCCGACGAUCGCAAAUUGCCUGGUUGGCGGGAAUUGUCCAAGGCUGGGUGGUCCAAACUAAAACGCUAACAGGGGAUGAGGCAUCUGUAAGAGACUCCAACUUCGGAGGAGGUCUCAGGAGGGGAAAUUUCAACAGAGGAUUGAGCAUCA
B21: chr2:47387936:47387937:-_ENSG00000143933_ENST00000272298|hu_mus|FALSE|FALSE (ssRNA)
RNA: GGGAGUUCUACAGUCCGACGAUCUACAAGAAAUUUAACACAUUCUGUACAAUGUCUUCACUUCGCUGUCAUCAUUUGUACAAACUCUUCGUAGUUUACCUGACCGUCCCCGUCAAUGUCUGCUUCCCUGAUCAUCUCAUCGACCAACAGAGGAUUGAGCAUCA
B22: chr7:30948173:30948174:-_ENSMUSG00000037029_ENSMUST00000062181|mus_mus|motif|central (ssRNA)
RNA: GGGAGUUCUACAGUCCGACGAUCGGAGGACUUCCAACUGUAUAAAGCAGAGGAUGUGUUCCCAUACAACUGUUUAAAUCGGAACGGUGUUUCAAGCUCAAAACUUUAAGCUUUGAACAAUGUUUUGCCUUUUAAAAAUUGAAGCAACAGAGGAUUGAGCAUCA

The other results are listed elsewhere or left out.

The target of this test is T1, UNK ZnF1-3. Put plainly: nsRBNS (natural sequence RNA bind-n-seq); RBNS binding buffer (assumed for nsRBNS): 25 mM Tris pH 7.5, 150 mM KCl, 3 mM MgCl2, 0.01% Triton X-100, 500 ug/ml BSA, 20 U/ml SUPERase-In, 4 C; UNK is unkempt and MSI1 is Musashi-1; names of the RNAs are library labels; protein concentration not given here; high values mean tight binding.
Consider B1, for which the binding signal was 0.971 enrichment R.

B2 registered a binding signal of 1.27 enrichment R.

With B3, the binding signal was determined as 1.57 enrichment R.

Molecule B4 displayed a binding signal of 0.553 enrichment R.

B5 gave a binding signal of 0.533 enrichment R.

Regarding B6, the binding signal was 0.618 enrichment R.

Turning to B7, the binding signal was found to be 0.517 enrichment R.

For B8, the binding signal was 0.828 enrichment R.

Molecule B9 returned a binding signal of 0.549 enrichment R.

In turn, B10 registered a binding signal of 0.997 enrichment R.

Regarding B11, the binding signal turned out to be 1.02 enrichment R.

B12 displayed a binding signal of 0.567 enrichment R.

Molecule B13 came in with a binding signal of 1.28 enrichment R.

In turn, B14 returned a binding signal of 2.13 enrichment R.

As to B15, the binding signal is 1.01 enrichment R.

B16 showed a binding signal of 1 enrichment R.

For B17, the binding signal was 0.618 enrichment R.

On to B18, for which the binding signal turned out to be 1.07 enrichment R.

Consider B19, for which the binding signal came out at 1.38 enrichment R.

B20 gave a binding signal of 2.09 enrichment R.

In turn, B21 showed a binding signal of 0.743 enrichment R.

With B22, the binding signal is 0.859 enrichment R.
